Sequences and labels used below:
B1: TPR 5TU (parent)
chain: GGAUCUUCUCGAUCUAACAAAAAAGACAAAUCUGCCACAAAGCUUGAGAGCAUCUUCGGAUGCAGAGGCGGCAGCCUUCGGUGGCGCGAUAGCGCCAACGUUCUCAACUAUGACACGCAAAACGCGUGCUCCGUUGAAUGGAGUUUAUCAUG

This sample is rich in variants without activity.

Results on 83 variants are retold here after the RNAGym collection of RNA variant scans (doi:10.1073/pnas.2313332121).

The variants in this data set derive from B1. The data set can be described thus: polymerase ribozyme fitness, log enrichment relative to wild type (log ratio); higher = more active; in vitro selection for triplet polymerase activity. The procedure, abridged:
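Fitness measures genotype enrichment against wild-type enrichment on a logarithmic scale, with inverse-variance-weighted averaging of replicates. The logarithm is base 2, and genotypes were kept only with ≥10 input reads and ≥1 read per output in Illumina sequencing. The sequenced libraries came from one triplicate in vitro selection round, including frozen incubation at −7 °C, of PCR-built, transcribed mutant libraries of each subunit of a heterodimeric triplet polymerase ribozyme.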
For C5G G50U A66U A73G C87A G143C, the “polymerase ribozyme fitness (log ratio)” value was at most -4.2.

Take C5G U53A G92C A137G: the “polymerase ribozyme fitness (log ratio)” value is at most -4.2.

In the case of U6A A37G C54G C87U G124C U146C, the “polymerase ribozyme fitness (log ratio)” value is at most -4.2.

As to U6C A19U G25C G50A C54G U56A C69A C85A C105G, the “polymerase ribozyme fitness (log ratio)” value is at most -4.2.

U6G U78A G84U A91C C108A A121C: the “polymerase ribozyme fitness (log ratio)” value was at most -4.2.

As for U7A A20U U31G C116U, the “polymerase ribozyme fitness (log ratio)” value was -3.58.

Consider U6A C8A G25A C36U U53A U55G C85G A89G, for which the “polymerase ribozyme fitness (log ratio)” value is at most -4.2.

Regarding C5G U6C C14G A22U A49U G50C G84C G92U C125G C132A G133U U144C, the “polymerase ribozyme fitness (log ratio)” value is at most -4.2.

With C5G G50A C87U C103G U111C C132U, the “polymerase ribozyme fitness (log ratio)” value is at most -4.2.

Take U6A U9G A26U C38G C85U A97U U135C: the “polymerase ribozyme fitness (log ratio)” value was at most -4.2.

Take U6G C85A C87G A98U A106C U148A: the “polymerase ribozyme fitness (log ratio)” value is at most -4.2.

With U6C C72A G83A A121G, the “polymerase ribozyme fitness (log ratio)” value is at most -4.2.

Turning to C5U U55A, the “polymerase ribozyme fitness (log ratio)” value was 0.322.

Consider C5G A29G G42A G80C C85G A106C U144A, for which the “polymerase ribozyme fitness (log ratio)” value is at most -4.2.

For C5G C14G A41C G48C G126A G140A, the “polymerase ribozyme fitness (log ratio)” value was at most -4.2.

As to C5G U7C A12G C14G C27U G67U G68A G83U, the “polymerase ribozyme fitness (log ratio)” value was at most -4.2.

For the variant U6A C38G C85U C95U C103G A113G C114U A142C, the “polymerase ribozyme fitness (log ratio)” value was at most -4.2.

For the variant U6G U53A G59C U90C C131U, the “polymerase ribozyme fitness (log ratio)” value was at most -4.2.

On to C5G A24U U78C G84C A113U A150C, for which the “polymerase ribozyme fitness (log ratio)” value is at most -4.2.

C5G U6G C38U A41U A47U G86A A91C: the “polymerase ribozyme fitness (log ratio)” value was at most -4.2.

For the variant C5G C54G G84U A107U U146A, the “polymerase ribozyme fitness (log ratio)” value is at most -4.2.

Turning to U6A U7G C36U C85A U144A, the “polymerase ribozyme fitness (log ratio)” value is at most -4.2.

As to U6G A52G U90A C99U U134C, the “polymerase ribozyme fitness (log ratio)” value was at most -4.2.

Turning to U6A C14G A26C C63G G65C U78G, the “polymerase ribozyme fitness (log ratio)” value is at most -4.2.

C5U A73U G83A: the “polymerase ribozyme fitness (log ratio)” value was -0.929.

Turning to C5G C85A C87U G88C A110U C116A U135C, the “polymerase ribozyme fitness (log ratio)” value was at most -4.2.

As for U6A C14U A91C A150U, the “polymerase ribozyme fitness (log ratio)” value is at most -4.2.

Consider U7A A26G U31C G50U A73C G86A U104G, for which the “polymerase ribozyme fitness (log ratio)” value is at most -4.2.

As for C5U C14G A22U A121G U148A, the “polymerase ribozyme fitness (log ratio)” value was at most -4.2.

On to U6A C8G A60C G62A C85A C103A, for which the “polymerase ribozyme fitness (log ratio)” value is at most -4.2.

In the case of U6A G58A U77G G88A C103G A137U, the “polymerase ribozyme fitness (log ratio)” value is at most -4.2.

In the case of C5U C8U G58A A73G C114U A120G, the “polymerase ribozyme fitness (log ratio)” value was -3.02.

Turning to C5G U44A, the “polymerase ribozyme fitness (log ratio)” value was at most -4.2.

Take C5G U9G A41U A47G G68A G88C: the “polymerase ribozyme fitness (log ratio)” value was at most -4.2.

As to U6G U33G C57G G83A U127A, the “polymerase ribozyme fitness (log ratio)” value is at most -4.2.

Regarding U6C A20C A28C A37U G42U G71A C85U C99G A106G C131G, the “polymerase ribozyme fitness (log ratio)” value was at most -4.2.

For the variant U6G C87G, the “polymerase ribozyme fitness (log ratio)” value was -3.6.

As to U6A C27U A41C U55A G62C G71C C85A G143U, the “polymerase ribozyme fitness (log ratio)” value was at most -4.2.

As for C5G A17U A29U C72U U139C G143A, the “polymerase ribozyme fitness (log ratio)” value was at most -4.2.

As to C5G A91C A142C, the “polymerase ribozyme fitness (log ratio)” value was at most -4.2.

With C5U A16G C27G A64U C116U, the “polymerase ribozyme fitness (log ratio)” value was at most -4.2.

Take U6G U53C G92C U144C: the “polymerase ribozyme fitness (log ratio)” value was -1.5.

Turning to C5G C36U C96G, the “polymerase ribozyme fitness (log ratio)” value is -2.51.

As to U6G C27A C32G C69G C85A G126U U127G G143C G152U, the “polymerase ribozyme fitness (log ratio)” value was at most -4.2.

With C5U G59C A97U U101G A138U, the “polymerase ribozyme fitness (log ratio)” value was at most -4.2.

Consider U7A A19G C43G G83U G88U U90A A115C, for which the “polymerase ribozyme fitness (log ratio)” value is at most -4.2.

With U6C C75U C87G G117A, the “polymerase ribozyme fitness (log ratio)” value was at most -4.2.

C5G C18U A21C G86A C105A C123G: the “polymerase ribozyme fitness (log ratio)” value is at most -4.2.

For C5G A29G U33G A39C C85G G86U C99A, the “polymerase ribozyme fitness (log ratio)” value is at most -4.2.

With U6C U9C A19C A26U C43G G80C C87U C93A U102G G112U, the “polymerase ribozyme fitness (log ratio)” value is at most -4.2.

In the case of U6C A22C A66U C75G A89U A91C G128U U130C, the “polymerase ribozyme fitness (log ratio)” value is at most -4.2.

For U6C U61A C76A G94C A110C, the “polymerase ribozyme fitness (log ratio)” value is at most -4.2.

Take U6G A23G G48U G50C G68A U78G U101A: the “polymerase ribozyme fitness (log ratio)” value was at most -4.2.

Regarding U6A A12U A41C C51G C87A G92A G100A U148A, the “polymerase ribozyme fitness (log ratio)” value is at most -4.2.

On to U6C U9G C76A G88A A91U, for which the “polymerase ribozyme fitness (log ratio)” value was at most -4.2.

Consider U6G G65U G71C G94A C103G A122G, for which the “polymerase ribozyme fitness (log ratio)” value is at most -4.2.

For the variant C5G U13C A17C G83U U134C A137C, the “polymerase ribozyme fitness (log ratio)” value is at most -4.2.

Consider U6A A22U G59U A73U U109G, for which the “polymerase ribozyme fitness (log ratio)” value is -3.52.

For U6A C43U, the “polymerase ribozyme fitness (log ratio)” value is at most -4.2.

For the variant U6G C85A, the “polymerase ribozyme fitness (log ratio)” value is -1.09.

For C5U A41U U45A G67U C75G U102G U111G A122C, the “polymerase ribozyme fitness (log ratio)” value was at most -4.2.

With U6G C51U G84A U146G, the “polymerase ribozyme fitness (log ratio)” value is -1.28.

With C5U C54U U82A C95G A150U, the “polymerase ribozyme fitness (log ratio)” value is -1.62.

As to C5G C35U G50A U55A C57A A66C C87A U134C, the “polymerase ribozyme fitness (log ratio)” value was at most -4.2.

For the variant C5A U9G A73G C87U A120U C123U A147G, the “polymerase ribozyme fitness (log ratio)” value was -3.95.

Regarding U6G C14A A17C C32U C93A A98G, the “polymerase ribozyme fitness (log ratio)” value was at most -4.2.

For C5G A17G, the “polymerase ribozyme fitness (log ratio)” value was -0.0409.

For the variant U6C C38A C54U G88A C93G U139G, the “polymerase ribozyme fitness (log ratio)” value was at most -4.2.

With U6G C14A C54A G80C A138G, the “polymerase ribozyme fitness (log ratio)” value was at most -4.2.

For U6G A20U G58A G86A C116G U144A, the “polymerase ribozyme fitness (log ratio)” value was at most -4.2.

On to C5G A21G U61G C79A C87G, for which the “polymerase ribozyme fitness (log ratio)” value was at most -4.2.

For the variant C5G C8A U13G G74C C99G A147U, the “polymerase ribozyme fitness (log ratio)” value was at most -4.2.

As for U6C U13G C43G C76U U90A U151G, the “polymerase ribozyme fitness (log ratio)” value was at most -4.2.

As for U6A U31A C36U A52C G65C U101G C103U G136U, the “polymerase ribozyme fitness (log ratio)” value was at most -4.2.

Take C5G A21U C35U A91G G94A C114U G136A: the “polymerase ribozyme fitness (log ratio)” value is at most -4.2.

U6G A19U A20C A110C: the “polymerase ribozyme fitness (log ratio)” value was at most -4.2.

Regarding U6G U44G C54G C93G C95U G133A, the “polymerase ribozyme fitness (log ratio)” value is at most -4.2.

Regarding U7A A17U A23U A37C U55A C93U C95U, the “polymerase ribozyme fitness (log ratio)” value is at most -4.2.

Turning to C5G C8G C18U A26U A30C G46A U56G C87G C93U C95U, the “polymerase ribozyme fitness (log ratio)” value is at most -4.2.

As for C5G A60G G68C C85A A106U A122U G128A A147U, the “polymerase ribozyme fitness (log ratio)” value is at most -4.2.

In the case of C5G C96A G117A, the “polymerase ribozyme fitness (log ratio)” value was -0.406.

Regarding U6G A37U U44A U45A C57U, the “polymerase ribozyme fitness (log ratio)” value was at most -4.2.

Turning to C5A U31G A40G G74A C85A A97U U101C C118U, the “polymerase ribozyme fitness (log ratio)” value is at most -4.2.
